In the RNAGym collection of RNA variant scans (doi:10.1073/pnas.2313332121):
Variants at the floor of the assay are shown more often than the library holds them.

B1: TPR 5TU (parent)
chain: GGAUCUUCUCGAUCUAACAAAAAAGACAAAUCUGCCACAAAGCUUGAGAGCAUCUUCGGAUGCAGAGGCGGCAGCCUUCGGUGGCGCGAUAGCGCCAACGUUCUCAACUAUGACACGCAAAACGCGUGCUCCGUUGAAUGGAGUUUAUCAUG

Variants of: B1
Assay: polymerase ribozyme fitness, log enrichment relative to wild type (log ratio); higher = more active; in vitro selection for triplet polymerase activity
Outline: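 Both subunits of a heterodimeric triplet polymerase ribozyme were given their own mutant library, built by PCR and transcribed. Each library was annealed with a biotinylated primer, the partner subunit and triplets, incubated frozen at −7 °C, and its extended constructs gel-excised, captured on streptavidin beads and amplified by RT-PCR, all in one round done in triplicate. Fitness is the logarithm of genotype enrichment relative to wild-type enrichment, with replicates averaged by inverse-variance weighting. That logarithm is base 2, and Illumina-sequenced genotypes needed ≥10 input reads and ≥1 read per output.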

A47C C95U A107G C118U C125U G140C U145G U148G and A47C C96A C123G U151G cannot be ordered by “polymerase ribozyme fitness (log ratio)” value: at most -4.2 for the first, at most -4.2 for the second.

First: A47C C103G U135G
Second: A47C C105A
The “polymerase ribozyme fitness (log ratio)” value of the first is lower: at most -4.2 for the first, -1.02 for the second.

A47C G48A A52C C54U C85U G92C A98C C103G G126U and A47C G48C C93U C149U cannot be ordered by “polymerase ribozyme fitness (log ratio)” value: at most -4.2 for the first, at most -4.2 for the second.

A47C G48U C76G C96U A113C and A47C G50C G81A U82A A91U G126U C132A A138C cannot be ordered by “polymerase ribozyme fitness (log ratio)” value: at most -4.2 for the first, at most -4.2 for the second.

A47C G50C G88A C96G G136U A138C and A47C G50U C69G G71C C95G A115G C132A cannot be ordered by “polymerase ribozyme fitness (log ratio)” value: at most -4.2 for the first, at most -4.2 for the second.

A47C G58A G67U A89G G92U A97U G124U U130A G143A and A47C G58C C87A U104C C116U cannot be ordered by “polymerase ribozyme fitness (log ratio)” value: at most -4.2 for the first, at most -4.2 for the second.

Compared with A47C G58C G71U C87U G124U G143A, A47C G59A is higher in “polymerase ribozyme fitness (log ratio)” value: at most -4.2 for the first, 0.309 for the second.

A47C G59A G83A C85A C108G G141U and A47C G59C A73U C93U G100C cannot be ordered by “polymerase ribozyme fitness (log ratio)” value: at most -4.2 for the first, at most -4.2 for the second.

A47C G59C C93G and A47C G65A A66C G86A C105G cannot be ordered by “polymerase ribozyme fitness (log ratio)” value: at most -4.2 for the first, at most -4.2 for the second.

A47C G65C C79G C87A and A47C G65C U77A U78G C85U cannot be ordered by “polymerase ribozyme fitness (log ratio)” value: at most -4.2 for the first, at most -4.2 for the second.

A47C G71A A91C C103A C125U C131G and A47C G71C C95G U130C G141C C149A cannot be ordered by “polymerase ribozyme fitness (log ratio)” value: at most -4.2 for the first, at most -4.2 for the second.

Compared with A47C G83A C99U A120U, A47C G83A C118U G133C U148C is lower in “polymerase ribozyme fitness (log ratio)” value: -3.03 for the first, at most -4.2 for the second.

A47C G84A A115C C129A and A47C G84C C93A A106U G136C U144G cannot be ordered by “polymerase ribozyme fitness (log ratio)” value: at most -4.2 for the first, at most -4.2 for the second.

A47C G133U C149A and A47C G141C U148G cannot be ordered by “polymerase ribozyme fitness (log ratio)” value: at most -4.2 for the first, at most -4.2 for the second.

Compared with A47C U53A C85G U139A, A47C U53A C95U G136C is higher in “polymerase ribozyme fitness (log ratio)” value: at most -4.2 for the first, -3.62 for the second.

A47C U53A U55C C93A and A47C U53C C57A C72G A73C U78C C79U C96G C129A A150G cannot be ordered by “polymerase ribozyme fitness (log ratio)” value: at most -4.2 for the first, at most -4.2 for the second.

A47C U53G G83A A106U C132A and A47C U55A C57G C79A G81A C87A C105U C149G cannot be ordered by “polymerase ribozyme fitness (log ratio)” value: at most -4.2 for the first, at most -4.2 for the second.

A47C U55A G74U G88C C93G A97G and A47C U56C G68A G74C cannot be ordered by “polymerase ribozyme fitness (log ratio)” value: at most -4.2 for the first, at most -4.2 for the second.

A47C U56G A91U C96G C118U A122C C131U U139C U148A and A47C U61A G62U A64G C85A C123U cannot be ordered by “polymerase ribozyme fitness (log ratio)” value: at most -4.2 for the first, at most -4.2 for the second.

A47C U61A G83C A142C and A47C U61C A66G G83C G86U C132G G143C cannot be ordered by “polymerase ribozyme fitness (log ratio)” value: at most -4.2 for the first, at most -4.2 for the second.

A47C U61G G68A G94C C99G A122C and A47C U77A C93A C116A C149U cannot be ordered by “polymerase ribozyme fitness (log ratio)” value: at most -4.2 for the first, at most -4.2 for the second.

A47C U77G U130G and A47C U78A C131U U145A cannot be ordered by “polymerase ribozyme fitness (log ratio)” value: at most -4.2 for the first, at most -4.2 for the second.

First: A47C U82G A142C
Second: A47C U102G A115U A142G U148A
The “polymerase ribozyme fitness (log ratio)” value of the first is higher: -2.54 for the first, at most -4.2 for the second.

A47G A49C G74C G92U C125U and A47G A49C U77C cannot be ordered by “polymerase ribozyme fitness (log ratio)” value: at most -4.2 for the first, at most -4.2 for the second.

A47G A49U G50C C57U A107C A150C and A47G A52C C54A G92C A97U C125U C149A cannot be ordered by “polymerase ribozyme fitness (log ratio)” value: at most -4.2 for the first, at most -4.2 for the second.

Compared with A47G A52C G83A A138C, A47G A52G C87U A98G is higher in “polymerase ribozyme fitness (log ratio)” value: at most -4.2 for the first, -1.52 for the second.

A47G A52G G58A A60G G62C U78G G88C and A47G A52U U56A G59U G86C U144G cannot be ordered by “polymerase ribozyme fitness (log ratio)” value: at most -4.2 for the first, at most -4.2 for the second.

A47G A64U C76U G83U A119U C129G G136U and A47G A89C C95A C103A C108U C131G G133C A138U cannot be ordered by “polymerase ribozyme fitness (log ratio)” value: at most -4.2 for the first, at most -4.2 for the second.

First: A47G A91G A97G A98C U134G U139A
Second: A47G A147U
The “polymerase ribozyme fitness (log ratio)” value of the first is lower: at most -4.2 for the first, 0.466 for the second.

Going from A47G C54A to A47G C57G G83A C95A G152A, the “polymerase ribozyme fitness (log ratio)” value falls from -1.65 to at most -4.2.

Compared with A47G C57U C75G C76G U77G C93A U127C, A47G C57U U109G is higher in “polymerase ribozyme fitness (log ratio)” value: at most -4.2 for the first, -0.869 for the second.

Going from A47G C63G G92U C93U to A47G C69A A122G, the “polymerase ribozyme fitness (log ratio)” value falls from -1.34 to -3.43.

A47G C75G G92U U127A and A47G C85G U90C G124U cannot be ordered by “polymerase ribozyme fitness (log ratio)” value: at most -4.2 for the first, at most -4.2 for the second.

A47G C85U G136C G152U and A47G C87U C125G G136U U148G C149A cannot be ordered by “polymerase ribozyme fitness (log ratio)” value: at most -4.2 for the first, at most -4.2 for the second.

Going from A47G C87U U101C to A47G C93A C131U U134C, the “polymerase ribozyme fitness (log ratio)” value falls from 0.535 to -0.603.

Going from A47G C96U U151A to A47G C99A A142U, the “polymerase ribozyme fitness (log ratio)” value rises from at most -4.2 to -2.48.

First: A47G C99U
Second: A47G C114U
The “polymerase ribozyme fitness (log ratio)” value of the first is higher: 0.0144 for the first, -2.4 for the second.

Compared with A47G C123U C129G, A47G G48A U82A G84A A98U C114U A137C is lower in “polymerase ribozyme fitness (log ratio)” value: -3.23 for the first, at most -4.2 for the second.

A47G G50C A115U U127A A147C and A47G G50C G71C G94A U134C cannot be ordered by “polymerase ribozyme fitness (log ratio)” value: at most -4.2 for the first, at most -4.2 for the second.

First: A47G G58C C85U C87A A115G A119G A142G
Second: A47G G58C G112C
The “polymerase ribozyme fitness (log ratio)” value of the first is lower: at most -4.2 for the first, -3.97 for the second.

Going from A47G G59U C96U U102G G140A to A47G G62U A142G U146G, the “polymerase ribozyme fitness (log ratio)” value rises from at most -4.2 to -4.12.

For A47G G68A C72U G81A A89G U148A, the “polymerase ribozyme fitness (log ratio)” value was at most -4.2.
